Data taken from PubChem BioAssay AID445 (National Center for Advancing Translational Sciences (NCATS), 2006).
Among all 110,000 compounds or so, about 40 (0.04%) were called active. The inconclusive results got no clear call from the source; some entries with a clear call stand among them for comparison. Calls come from the whole dose curve; as a rule, active = well fitted curve in the direction sought with a large enough effect in the signal ratio (not every such curve was filed as active); inconclusive = small, poorly fitted or top-dose-only effect, or a change in a side signal; inactive = flat fitted curve, though single readings scatter; the % refers to the signal ratio. Where the call is inconclusive, the potency comes from a doubtful curve fit.

Test: IkB Signaling;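 for IkBa stabilization activation: 0% = basal untreated cells and 100% = reference inhibitor full response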
Conditions: ABC-DLBCL IkBa-CBG/CBR dual luciferase ratio (green luciferase fused to IkBa over red control in OCI-Ly3 lymphoma cells), 4 h; IkBa stabilization activation: at 57.1 µM (top of the series), scaled: untreated 0%, proteasome inhibitor 100% unless noted
Procedure, shortened: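 Curves were fitted separately to fusion (green), unfused (red) and ratio luminescence, then classed by r2, magnitude and activity. Cells: OCI-Ly3, 4 h compound plus doxycycline at 37C; 10 uM MG-132 defined full response.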
Potency is the fitted concentration of half-maximal effect.

SMILES | IkBa stabilization activation | Potency
COc1ccc(-c2nc(C(N)=O)c3[nH]c(=O)n(-c4cccc(Cl)c4)c3n2)cc1OC | inactive | –
O=C(Nc1ccc(F)c(Cl)c1)C1CCN(C(=O)c2ccc(F)cc2)CC1 | inconclusive: 6.42% [signal inhibitor] | –
CCOc1cc(-c2cc(-c3ccc(N)cc3)nc(N)c2C#N)ccc1O | inconclusive: 2.59% [signal inhibitor] | –
CCc1ccc2nc(NC(=O)c3cc(C)on3)sc2c1 | inconclusive: 3.15% [signal inhibitor] | –
COc1ccc(Cl)cc1NC(=O)CSC1=Nc2ccccc2C2=NC(CCC(=O)NCc3ccc(F)cc3)C(=O)N12 (stereo not drawn) | inconclusive: 1.03% [signal inhibitor] | –
COc1ccc(NC(=O)C2CCN(S(=O)(=O)c3ccc4[nH]c(=O)ccc4c3)CC2)cc1Cl | inconclusive: 6.8% [signal activator] | –
CCC(=O)Nc1ccc2c(c1)nc1n2CCSC1 | inactive | –
O=C(CSc1nnnn1C1CCCC1)N1CCCc2ccccc21 | inactive | –
CCc1nnc(SCc2cccc(F)c2)c2cc3sc(C)cc3n12 | inconclusive: -3.61% [signal inhibitor] | –
CCOc1ccc(N2CC(c3nc4ccccc4n3CCCOc3ccccc3OC)CC2=O)cc1 (stereo not drawn) | inconclusive: -0.979% [signal inhibitor] | –
COc1cccc(NS(=O)(=O)c2cn(C)c(=O)n(C)c2=O)c1 | inactive | –
CCN(CC)c1ccc(-n2c(C)c(C(C)=O)c(C(C)=O)c2C)cc1 | inactive | –
O=C(Nc1nonc1-c1ccc(Cl)cc1)c1ccccc1F | inconclusive: 11.3% [signal inhibitor] | –
Cn1c(=O)oc2cc(S(=O)(=O)Nc3ccc4c(c3)OCO4)ccc21 | – | inconclusive: 12.6 µM [signal inhibitor, partial curve]
CC(C)Cn1c(N)c(C(=O)CSc2ccc3c(c2)OCCO3)c(=O)n(C)c1=O | inconclusive: 4.31% [signal inhibitor] | –
CCOC(=O)c1c(NC(=O)c2cccs2)sc2c1CCC2 | inactive | –
Cc1ccccc1NC(=O)c1c(C)oc2ccc(O)c(CN3CCC(C)CC3)c12 | inconclusive: 0.755% [signal inhibitor] | –
CCCOc1ccc(C(=O)Nc2ccc3nn(-c4ccc(OC)c(Cl)c4)nc3c2)cc1 | inactive | –
CCOc1ccc(-c2nnc(SCC(=O)Nc3cc(F)ccc3F)o2)cc1 | inconclusive: 1.41% [signal inhibitor] | –
CN(C)c1ncc2nc(CCc3ccccc3)c(=O)n(C3CC3)c2n1 | inactive: -3.85% [at 11.4 µM, scaled: untreated 0%, proteasome inhibitor 100%] | –
COc1ccc(NC(=O)c2c(-c3ccccc3Cl)noc2C)c(OC)c1 | inconclusive: 1.35% [signal inhibitor] | –
COc1ccc(NC(=O)c2cnn(-c3ccc(F)cc3F)c2C2CCN(C(=O)OC(C)(C)C)CC2)cc1Cl | inconclusive: 0.0437% [signal inhibitor] | –

SMILES | IkBa stabilization activation | Potency
Nc1nonc1-c1nc2ccccc2n1Cc1c(Cl)cccc1Cl | inconclusive: 6.18% [signal inhibitor] | –
COc1ccc(CCNC(=O)c2ccc3nc(Cc4ccccc4)oc3c2)cc1OC | inconclusive: 1.34% [signal inhibitor] | –
O=C(C1CCCN(S(=O)(=O)c2cccc3nonc23)C1)N1CCN(c2ccccc2Cl)CC1 (stereo not drawn) | inconclusive: 7.33% [signal inhibitor] | –
Cn1c(=O)c(-c2cccs2)nc2cnc(Oc3ccccc3)nc21 | inactive: -2.44% [at 11.4 µM, scaled: untreated 0%, proteasome inhibitor 100%] | –
CCOC(=O)Cn1c(=O)oc2cc(S(=O)(=O)N3CCN(c4ccccc4OC)CC3)ccc21 | – | inconclusive: 39.8 µM [signal inhibitor]
O=C(NCCc1csc2nc(-c3ccccc3F)nn12)c1ccccc1C(F)(F)F | inconclusive: -0.175% [signal inhibitor] | –
CC(C)Oc1cccc(C(=O)Nc2ccc(CN3CCOCC3)cc2)c1 | inconclusive: 2.29% [signal inhibitor] | –
N[C@@H](CSCc1ccc(I)cc1)C(=O)O | inactive: 0.178% [at 11.4 µM, scaled: untreated 0%, proteasome inhibitor 100%] | –
CCCCn1c(SCc2c(C)noc2C)nc2cc(S(N)(=O)=O)ccc21 | inconclusive: 14.3% [signal activator] | –
CCC(C)(C)NC(=O)C(c1cccs1)N(CC1CCCO1)C(=O)Cn1nnc2ccccc21 (stereo not drawn) | inactive | –
Cc1ccc(Cl)cc1N(C)C(=O)c1noc2c1CCCCC2 | inconclusive: 1.8% [signal inhibitor] | –
COc1ccccc1NC(=O)C1=C(C)Nc2nc(SCC(=O)c3ccc(C)cc3)nn2C1c1ccccc1C (stereo not drawn) | inconclusive: -4.02% [signal inhibitor] | –
COc1ccc(-n2cc(C(=O)N(C)c3cc(C)ccc3OC)c3ccccc3c2=O)cc1 | inconclusive: 1.25% [signal inhibitor] | –
CSCCC(NS(=O)(=O)c1ccc2c(c1)oc(=O)n2C)C(=O)NCc1ccc(F)cc1 (stereo not drawn) | inconclusive: 0.341% [signal inhibitor] | –
COc1ccc(NC(=O)c2sc3nc(C)c(C(=O)Nc4ccc(C)cc4C)c(-c4ccccc4Cl)c3c2N)cc1 | inconclusive: 0.563% [signal inhibitor] | –
CN(C)CCN(Cc1ccccc1)S(=O)(=O)c1ccc(-c2cc(C(F)(F)F)on2)s1 | inconclusive: -1.53% [signal inhibitor] | –
CN(C)CCNC(=O)CCCn1c(=O)c2cccn2c2ccccc21 | inconclusive: 2.86% [signal inhibitor] | –
CCC(C)(C)n1nnnc1C(c1cc2ccc(C)cc2[nH]c1=O)N(Cc1cccnc1)Cc1ccco1 (stereo not drawn) | inconclusive: 5.14% [signal inhibitor] | –
O=C(O)CCCCCNc1nc(=S)[nH]c2ccccc12 | inconclusive: 13.6% [signal inhibitor] | –
Cc1nnc(N2CCN(Cc3ccccc3)CC2)[nH]c1=O | inactive | –
Cc1ccc(CCNC(=O)c2ccc(CS(=O)(=O)c3ccc(Cl)cc3)o2)cc1 | inconclusive: 7.09% [signal inhibitor] | –
